According to PubChem BioAssay AID686979 (National Center for Advancing Translational Sciences (NCATS), 2013):
Several values for one entry are separate records, joined by “and”; a condition that tells them apart may be missing. Equal values may be shown once. Hit rate of the full screen: of about 420,000 compounds, about 50,000 (12%) were called active. The shares of active, inactive and inconclusive entries below differ from those in the screen. The call rests on the fitted dose curve; in most records, active means well fitted inhibition curve with a large enough effect; inconclusive means small, poorly fitted or top-dose-only effect; inactive means flat fitted curve, though single readings scatter. Potencies of inconclusive entries are doubtful fits and often do not repeat.

Assay: qHTS for Inhibitors of human tyrosyl-DNA phosphodiesterase 1 (TDP1): qHTS in cells in presence of CPT; further: nearly all actives have a fitted effect of over 55% in size
Settings: chicken DT40 Tdp1-/-;hTDP1 cells + 20 nM CPT, ATP luminescence, 48 h; activity change, negative = growth inhibition: at 46.2 µM (top of the series) unless noted
Summary of the method: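 Chicken DT40 Tdp1-/- cells stably complemented with human TDP1 were seeded at 400 cells/well in medium containing 20 nM camptothecin, exposed to pin-transferred compounds, and grown at 37 °C for at least 48 hr. Viability was read as ATP luminescence.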
On the % scale 0 is the no-effect control and ±100 the full control effect; potency means the concentration at half of the fitted maximal effect; tags describe the fitted curve by direction and shape.

SMILES | activity change, negative = growth inhibition | Potency
COC(=O)C[C@@H]1C=C[C@H](NS(=O)(=O)c2cccc(F)c2)[C@@H](CO)O1 | inactive: 8.71% | –
O=C(Nc1nc(-c2cccs2)c(-c2cccs2)s1)C1(c2ccccc2)CC1 | – | inconclusive: 20.6 µM [inhibitor, single point]
Cc1n[nH]c(=O)c2c(NC(=O)CSc3nc4ccccc4c(=O)n3CCCOC(C)C)oc(C)c12 | – | inconclusive: 14.6 µM [inhibitor, partial curve]
COc1ccc(-c2c(-c3cc(OC)cc(OC)c3)n(C)c3ccc(-c4ccc(SC)cc4)cc23)cc1 | inactive: -5.98% | –
O=C1CCC(C(=O)N2CCCC(C(=O)c3ccc4c5c(cccc35)CC4)C2)=NN1 (stereo not given) | – | inconclusive: 29.1 µM [inhibitor, single point]
CC12C=CC(=O)C=C1CCC1C2CCC2(C)C(C(=O)CO)CCC12 (stereo not given) | – | inconclusive: 20.6 µM [inhibitor, single point]
Cc1nnc(SCc2ccccc2)nc1-c1ccccc1 | – | inconclusive: 29.1 µM [inhibitor, single point]
CC/C(=C(\c1ccccc1)c1ccc(OCCN(C)C)cc1)c1ccccc1 | – | active: 20.6 µM
COc1cc(NC(=O)COC(=O)CNC(=O)c2ccc(Cl)cc2)c(C)cc1[N+](=O)[O-] | inactive: -0.996% | –
O=C(Nc1cccc(F)c1)c1ccc(-c2cccnc2)c2ccoc12 | – | inconclusive: 20.6 µM [inhibitor, single point]
O=S1(=O)CC(N2CCCCC2)CN1Cc1cn(Cc2ccc(C(F)(F)F)cc2)nn1 (stereo not given) | inactive: -6.74% | –
CC(C)=C(NC(=O)c1ccccc1)C(=O)N/N=C(\C)c1ccccc1O | – | inconclusive: 29.1 µM [inhibitor, single point]
CCc1cccc(CC)c1N1C(=O)C2=C(SCCCS2)C1=O | – | inconclusive: 23.1 µM [inhibitor, single point]
CC(C)(C)c1ccc(S(=O)(=O)N2CCC(NC(=O)c3ccco3)CC2)cc1 | inactive: 13% | –
O=S(=O)(CC(CN1CCCCC1)N1CCCCC1)c1ccc2ccccc2c1 (stereo not given) | – | active: 5.17 µM
COc1ccc(/C=C/C(=O)c2ccccc2O)cc1CN1CCOCC1 | – | active: 16.4 µM
CCCCC(CC)Cn1c(N)c(C#N)c2nc3ccccc3nc21 (stereo not given) | – | inconclusive: 29.1 µM [inhibitor, single point]
COc1c(C)cc(C(=O)C2CCCN(C(=O)c3ccc4[nH]ccc4c3)C2)cc1C (stereo not given) | inconclusive: -31.9% [inhibitor] | –
O=C(COc1ccc2ccc(=O)oc2c1)Nc1cccnc1 | inactive: 6.22% | –
CN(C)C(CNc1ncnc2sc3c(c12)CCCCC3)c1ccco1 (stereo not given) | – | inconclusive: 29.1 µM [inhibitor, single point]
COc1ccccc1N(C)S(=O)(=O)c1ccc(C(=O)Nc2ccc(C(N)=O)cc2)cc1 | – | inconclusive: 29.1 µM [inhibitor, single point]
COCCn1c(C)nnc1SCC(=O)Nc1ccccc1[N+](=O)[O-] | inactive: -1.83% | –
COC(=O)CN1C(=O)C(O)(c2c(C)[nH]c3ccccc23)c2ccccc21 (stereo not given) | – | inconclusive: 29.1 µM [inhibitor, single point]

SMILES | activity change, negative = growth inhibition | Potency
O=C(NCc1ccco1)c1ccc2sc([C@H]3C[C@H](O)[C@@H](CO)O3)nc2c1 | – | inconclusive: 0.461 µM [inhibitor, full curve]
NC(=O)c1ccc(NC(=O)C#Cc2ccccc2)cc1 | – | inconclusive: 10.3 µM [inhibitor, single point]
CCN(CC(=O)Nc1c(F)cccc1F)C(=O)c1cccc(S(=O)(=O)N2CCN(c3ccccc3)CC2)c1 | – | inconclusive: 14.6 µM [inhibitor, single point]
O=C(NCCC(=O)N1CCN(c2ccccc2O)CC1)c1ccc(Cl)cc1 | inconclusive: -30.6% [inhibitor] | –
Cc1cc(C(=O)CCl)c(C)n1Cc1ccco1 | – | active: 2.59 µM
CCOC(=O)c1sc2nc(-c3cccnc3)ccc2c1N | inactive: -2.94% | –
O=[N+]([O-])c1ccccc1S(=O)NCc1c(Cl)cccc1Cl (stereo not given) | – | inconclusive: 29.1 µM [inhibitor, single point]
COc1ccccc1CNc1nccn(-c2ccc(F)cc2)c1=O | – | inconclusive: 29.1 µM [inhibitor, single point]
COc1cccc2[nH]c3c(N4CCC5(CC4)OCCO5)ncnc3c12 | – | inconclusive: 20.6 µM [inhibitor, single point]
COc1ccc(-c2[nH]c(-c3ccc(C)cc3)nc2SCC(=O)Nc2nccs2)cc1 | – | inconclusive: 29.1 µM [inhibitor, single point]
CC(C)(C)OC(=O)N1CCNc2ccccc2C1 | inactive: -18.9% | –
COC(=O)c1ccccc1-c1cc(C)cc2c1OC(CNC(=O)c1cc(C)n(C)n1)C2 (stereo not given) | inactive: 8.13% [at 9.04 µM] | –
Fc1ccccc1-c1csc(=Nc2cccnc2)n1CC1CCCO1 (stereo not given) | – | inconclusive: 29.1 µM [inhibitor, single point]
COc1ccc(S(=O)(=O)NCCC(=O)OCC(=O)NC2CC2)cc1 | inactive: 5.44% | –
O=C(Nc1cccnc1)c1ccc(S(=O)(=O)c2ccc(Cl)cc2)cc1 | – | inconclusive: 18.4 µM [inhibitor, partial curve]
CCc1oc2ccccc2c1C(=O)c1cc(Br)c(O)c(Br)c1 | – | inactive and inconclusive: 29.9 µM [inhibitor, single point]
O=C(N/N=C/c1ccc2c(c1)OCO2)c1cc(-c2ccccc2)nc2ccccc12 | – | active: 20.6 µM
CCN(C(=O)COC(=O)c1ccc(-n2c(C)ccc2C)cc1)c1c(N)n(Cc2ccccc2)c(=O)[nH]c1=O | – | inconclusive: 29.1 µM [inhibitor, single point]
O=S(=O)(c1ccc2ccccc2c1)N1CCC(c2nc(-c3ccncc3)no2)CC1 | – | active: 16.4 µM
O=C(COC(=O)c1ccc(CNS(=O)(=O)c2ccc(F)c(Cl)c2)cc1)NCC1CCCCC1 | inactive: -8.94% | –
O=C(OCC(=O)N1CCOCC1)c1ccccc1O | inactive: 12.2% | –
CCc1cccc(C)c1NC(=O)COn1nnc2ccc(C(F)(F)F)cc21 | – | inconclusive: 18.4 µM [inhibitor, single point]
